Laboratory results from PubChem BioAssay AID463173 (ICCB-Longwood Screening Facility, Harvard Medical School, 2010).
Out of some 52,000 compounds screened, about 1,700 (3.3%) were called active. No stated cut-off is given here; in the data, active means survival mostly below about 52% (no sharp cut-off); inactive means mostly above about 56%. The list shows a part of the results.

What follows are molecules tested on Wild type (assay: S. aureus survival, RN4220 and DeltatarO strains – OD600, teichoic acid synthesis inhibitors, primary screen (AID 463173)). Conditions: S. aureus RN4220 wild type/DeltatarO growth, OD600, 18 h, stronger effect = lower value, screened at 18.75 µg/mL (by protocol).
For CCC(=O)N1CCCc2cc(S(=O)(=O)N3CCC(C(=O)NCc4ccc(F)cc4)CC3)ccc21, the survival was inactive: 113%. COc1ccc(Cl)cc1NC(=O)c1cn(C2CCCC2)c(=O)c2c1c1ccccc1n2C was tested, and the survival was inactive: 73%. Cc1ccccc1C(=O)NCC1COc2ccccc2O1 (stereo not given) was tested, and the survival was inactive: 103%. Cc1cccc(N(CC(=O)Nc2ccccc2C(F)(F)F)S(=O)(=O)c2ccccc2)c1C was tested, and the survival was inactive: 87%. With O=C(NCC(c1cccs1)S(=O)(=O)c1ccccc1)c1ccc(C(F)(F)F)cc1 (stereo not given) the survival was inactive: 97%. With COc1ccc(OC)c(C2CC(=O)Oc3c2c(=O)n(C)c2ccccc32)c1 (stereo not given) the survival was inactive: 78%. In the case of CC(=NCCN1CCNCC1)C1=C(O)CC(C)(C)CC1=O, the survival is reported as inactive: 116%. In the case of COCCCNC(=O)CSc1nc2c(sc3ccccc32)c(=O)n1CCc1ccc(OC)c(OC)c1, the survival is reported as active: -6%. In the case of Cc1cc(Cl)ccc1OCC(=O)N(Cc1ccco1)Cc1ccccc1F, the survival is reported as inactive: 87%. COc1ccc(CNC(=O)CSc2ncc3c(n2)-c2ccc(Cl)cc2N(Cc2ccccc2)S3(=O)=O)cc1 was tested, and the survival was inactive: 22%. In the case of CCOc1ccccc1NC(=O)CCc1c(C)nn(-c2ccc(N3CCCCC3)nn2)c1C, the survival is reported as inactive: 83%. COc1ccccc1C(=O)NC1(C(F)(F)F)C(=O)Nc2c1c(=O)[nH]c(=O)n2-c1ccc(F)cc1 (stereo not given) was tested, and the survival was inactive: 155%. In the case of COc1ccc(C(=O)CSc2ncn(-c3ccccc3)n2)cc1OC, the survival is reported as inactive: 113%. In the case of O=C(Nc1ccc(C(=O)N2CCCCC2)cc1)C1CCCCC1, the survival is reported as inactive: 98%. In the case of CN(C)CCNC(=O)Cn1ccc2cc(S(=O)(=O)N3CCCCCC3)ccc21, the survival is reported as inactive: 72%. For Cc1cccc(Cn2c(-c3cccc(Br)c3)nc3ccccc32)c1, the survival was inactive: 124%. COc1cc(NC(=O)Cn2c(=O)n(Cc3ccco3)c(=O)c3oc4ccccc4c32)cc(OC)c1 was tested, and the survival was inactive: 71%. In the case of Cc1ccc(-c2nc(Cn3c(=O)cc(-c4ccccc4)c4c(C)nn(C)c43)c(C)o2)cc1, the survival is reported as inactive: 120%. With O=C(CSc1nnc(-c2ccc([N+](=O)[O-])cc2)o1)Nc1ccccc1 the survival was inactive: 84%. In the case of Cc1cc(C)cc(NS(=O)(=O)c2ccc3[nH]cc(C(=O)NCc4ccccc4Cl)c(=O)c3c2)c1, the survival is reported as inactive: 111%. For CCOc1ccc(C(=O)N2CCC(c3noc(-c4ccc(S(=O)(=O)N5CCCC5)cc4)n3)CC2)cc1, the survival was inactive: 108%. CCc1c(-c2ccccc2)nc2ccccc2c1C(=O)NCc1ccc(C)cc1 was tested, and the survival was inactive: 90%. In the case of CN(C1CCCCC1)S(=O)(=O)c1ccc2c(c1)c(=O)c(C(=O)N1CCN(c3ccccc3F)CC1)cn2C, the survival is reported as inactive: 90%. In the case of CCOC(=O)C(C)Nc1n[nH]c(=O)[nH]c1=O (stereo not given), the survival is reported as inactive: 127%. In the case of Cc1ccc(OCCn2nnc3sc4c(c3c2=O)CCC(C)C4)cc1 (stereo not given), the survival is reported as inactive: 82%. In the case of Cn1cnc(S(=O)(=O)N2CCC(C(=O)N3CCN(c4ccccc4F)CC3)CC2)c1, the survival is reported as inactive: 59%. In the case of CCOc1ccc(NC(=O)c2cc(=O)c3ccc(C)c(C)c3o2)cc1, the survival is reported as inactive: 84%. CSc1cccc(NS(=O)(=O)c2cn(C)c(C)n2)c1 was tested, and the survival was inactive: 59%. CCOc1ccc2c(c1)NC(c1cccs1)=NC(c1ccc(F)cc1)=N2 was tested, and the survival was inactive: 74%. In the case of COc1ccc(C2C(C(=O)Nc3ccc(C)cc3C)=C(C)Nc3nc4ccccc4n32)c(OC)c1 (stereo not given), the survival is reported as inactive: 65%. COc1ccc2occ(CC(=O)Nc3ccc(S(=O)(=O)Nc4nc(C)cc(C)n4)cc3)c2c1 was tested, and the survival was inactive: 115%. For CCN(c1ccccc1)c1nnc(NC(=O)Nc2ccc(Br)cc2F)s1, the survival was inactive: 98%. For COc1ccc(N2CCN(c3nc4ccc(C)cc4n4nnnc34)CC2)cc1, the survival was active: -6%. With O=C(Nc1ccc(Br)cc1F)N1CCC2(CC1)Oc1ccccc1C(=O)N2Cc1ccccc1F the survival was inactive: 95%. In the case of CC(C)(C)c1ccc(C(=O)N2CCCCC2CCN2CCCCC2)cc1 (stereo not given), the survival is reported as inactive: 88%. CCC(C)NC(=O)C1=CC(c2ccc3c(c2)OCO3)=NS(=O)(=O)N1C (stereo not given) was tested, and the survival was inactive: 85%. In the case of COC(=O)c1cc(NC(=O)Cn2nc(-c3ccc(C)c(C)c3)ccc2=O)cc(C(=O)OC)c1, the survival is reported as inactive: 94%. In the case of COC(=O)c1ccc(Cn2nnc3c(=O)[nH]c(C4CCCN(S(=O)(=O)c5cccc(Cl)c5)C4)nc32)cc1 (stereo not given), the survival is reported as inactive: 98%. In the case of COc1ccc2c(c1)cc1c(=O)n(CC(=O)NCCCc3ccccc3)nc(C)n12, the survival is reported as inactive: 79%. O=C(CN1C(=O)COc2ccc(S(=O)(=O)Nc3ccccc3)cc21)Nc1cccc(Cl)c1 was tested, and the survival was inactive: 80%. COc1cccc2c1Oc1ncccc1N(C(=O)CCC(=O)NCc1ccccc1Cl)C2 was tested, and the survival was inactive: 49%. For CCOc1ccc(-c2cc(-c3nc(-c4ccc(OC)c(OC)c4)no3)[nH]n2)cc1, the survival was inactive: 64%. In the case of Cc1ccccc1CSc1ncc(CO)n1Cc1ccc(F)cc1, the survival is reported as inactive: 136%. For Cc1cc(C)nc(SCC(=O)Oc2ccc3oc(=O)cc(C)c3c2)n1, the survival was inactive: 102%. With CCN(C(=O)Cn1cnc2sc(C)c(S(=O)(=O)N3CCN(c4ncccn4)CC3)c2c1=O)c1ccccc1F the survival was inactive: 84%. For COc1ccc(Cc2nc3ccccc3n2Cc2ccccc2F)cc1, the survival was active: 23%. CC(=O)c1ccc(NC(=O)CC(c2cccs2)N2Cc3ccccc3C2=O)cc1 (stereo not given) was tested, and the survival was inactive: 49%. In the case of O=C(c1ccccc1)n1nnc2ccccc21, the survival is reported as inactive: 103%. For COc1ccc(-c2cn3cccnc3n2)cc1NC(=O)c1cc(C)cc(C)c1, the survival was inactive: 55%. For Cc1cc(Cl)ccc1OCC(=O)N(Cc1ccco1)Cc1ccco1, the survival was inactive: 76%. For COc1ccc(CCNC(=O)CCc2c(C)c3cc4c(C)coc4c(C)c3oc2=O)cc1OC, the survival was inactive: 105%. In the case of CCOC(=O)c1ccc(NC(=O)c2ccc(=O)n(Cc3cccc(C)c3)c2)cc1, the survival is reported as inactive: 60%. In the case of CC(O)CNc1nc2c(c(=O)n(Cc3ccc(Cl)cc3)c(=O)n2C)n1C (stereo not given), the survival is reported as inactive: 128%. For COc1ccc(-c2nnc(C3CCN(S(=O)(=O)c4ccc(C)c(C)c4)CC3)o2)cc1, the survival was inactive: 67%. With Cc1ccc(-n2ncc(C(=O)N3CCN(c4ccc(Cl)cc4)CC3)c2C2CCN(C(=O)OC(C)(C)C)CC2)c(C)c1 the survival was inactive: 90%.
